The supplement of paper PMC4967469
The IC50 comes from the fitted curve, where viability falls to half of the control; fits outside the tested doses are given as limits. The AUC spans the tested range (256-fold, ending at the top dose) of the same fit; the more sensitive the line, the further below 1. For some assays here: An inferred top dose was derived from the fitted curves, not read from the paper.

Assays:
Assay in all cases: Viability of human cancer cell lines after 72 h of drug (GDSC screen)
[1] = compound: CC(=O)Nc1nc(C)c(-c2ccc(Cl)c(S(=O)(=O)NCCO)c2)s1 [PIK-93]; details: top dose 20 µM
Experimental: (§1)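 Human cancer cell lines in 384-well plates, medium with 10% serum, drug for 72 h over a 256-fold dose range (nine 2-fold or five 4-fold steps up to the top dose). Adherent lines were fixed and stained with the nucleic acid dye Syto60, suspension lines read with resazurin; signal relative to control wells, capped at 0 and 100%. One two-parameter sigmoid per drug and line, fitted in a mixed model over all curves with the slope shared within a line.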

[2] = compound: CC1(C)CCC(c2ccc(Cl)cc2)=C(CN2CCN(c3ccc(C(=O)NS(=O)(=O)c4ccc(N[C@H](CCN5CCOCC5)CSc5ccccc5)c(S(=O)(=O)C(F)(F)F)c4)cc3)CC2)C1 [ABT-263]; details: top dose 2 µM; top dose inferred
Experimental: as §1

[3] = compound: COc1cc2ncn(-c3cc(OCc4ccccc4C(F)(F)F)c(C(N)=O)s3)c2cc1OC [GW843682X]; details: top dose 0.256 µM
Experimental: as §1

[4] = compound: Cn1cc(/C=C2\C(=O)Nc3cccnc32)c2ccccc21 [GW 441756]; details: top dose 2 µM; top dose inferred
Experimental: as §1

[5] = compound: COc1cc(/C=C/C(=O)N2CCC=CC2=O)cc(OC)c1OC [piperlongumine]; details: top dose 10 µM
Experimental: as §1

[6] = compound: O=C(/C=C/c1ccccc1)NC(NC(=S)Nc1cccc2cccnc12)C(Cl)(Cl)Cl [Salubrinal]; details: top dose 16 µM; top dose inferred
Experimental: as §1

Row | Cell Line | AUC [1] | IC50 [1] [nM] | AUC [2] | IC50 [2] [nM] | AUC [3] | IC50 [3] [nM] | AUC [4] | IC50 [4] [nM] | AUC [5] | IC50 [5] [nM] | AUC [6] | IC50 [6] [nM]
1 | 8-MG-BA (glioma, adherent) | 0.872 | 17100 | 0.988 | > 2000 | 0.539 | 20.3 | 0.987 | > 2000 | 0.683 | 1950 | 0.835 | 9560
2 | 697 (lymphoblastic leukaemia, suspension) | 0.382 | 636 | 0.508 | 131 | 0.424 | 10.4 | 0.978 | > 2000 | 0.662 | 1590 | 0.64 | 2240
3 | A3-KAW (B-cell lymphoma, suspension) | 0.693 | 3820 | 0.993 | > 2000 | 0.677 | 44.4 | 0.993 | > 2000 | 0.636 | 1360 | 0.853 | 8770
4 | A4-Fuk (B-cell lymphoma, suspension) | 0.859 | 17700 | 0.975 | > 2000 | 0.495 | 15.4 | 0.973 | > 2000 | 0.797 | 4970 | 0.86 | 14400
5 | A101D (melanoma, adherent) | 0.747 | 7690 | 0.875 | > 2000 | 0.488 | 14.8 | 0.946 | > 2000 | 0.696 | 2550 | 0.853 | > 16000
6 | A253 (head and neck, adherent) | 0.979 | > 20000 | 0.962 | > 2000 | 0.705 | 59.2 | 0.927 | > 2000 | 0.805 | 4880 | 0.96 | > 16000
7 | BB30-HNC (head and neck, adherent) | 0.858 | 15800 | 0.63 | 283 | 0.563 | 23.7 | 0.982 | > 2000 | – | – | 0.938 | > 16000
8 | DJM-1 (skin, adherent) | 0.929 | > 20000 | 0.958 | > 2000 | 0.628 | 35.9 | 0.988 | > 2000 | – | – | 0.903 | > 16000
9 | DOHH-2 (B-cell lymphoma, suspension) | – | – | 0.649 | – | 0.626 | 35.2 | 0.986 | > 2000 | – | – | 0.816 | 8600
10 | ES1 (Ewing sarcoma, adherent) | 0.609 | 2480 | 0.972 | > 2000 | 0.668 | 46.5 | – | – | 0.619 | 1320 | 0.901 | > 16000
11 | ES3 (Ewing sarcoma, adherent) | 0.652 | 3370 | 0.877 | > 2000 | 0.962 | > 256 | – | – | 0.778 | 4270 | 0.933 | > 16000
12 | GA-10 (Burkitt lymphoma, suspension) | – | – | 0.991 | > 2000 | 0.498 | 15.8 | 0.99 | > 2000 | 0.761 | 3040 | 0.725 | 3850
13 | GCIY (stomach, adherent) | 0.836 | 15800 | 0.883 | > 2000 | 0.689 | 58.5 | 0.982 | > 2000 | – | – | 0.915 | > 16000
14 | H-EMC-SS (chondrosarcoma, adherent) | 0.57 | 2050 | 0.834 | 1890 | 0.888 | > 256 | – | – | – | – | 0.981 | > 16000
15 | HT-144 (melanoma, adherent) | 0.943 | > 20000 | 0.984 | > 2000 | 0.495 | 15.5 | – | – | 0.703 | 2520 | 0.896 | > 16000
16 | IM-9 (myeloma, suspension) | – | – | 0.96 | > 2000 | 0.983 | > 256 | 0.992 | > 2000 | 0.819 | 4710 | 0.98 | > 16000
17 | IST-SL2 (small cell lung carcinoma, suspension) | – | – | 0.622 | 270 | 0.66 | 44.2 | 0.986 | > 2000 | 0.965 | > 10000 | 0.862 | 13500
18 | JAR (urogenital system, adherent) | 0.693 | 4280 | 0.984 | > 2000 | 0.575 | 25.5 | – | – | 0.702 | 2280 | 0.88 | > 16000
19 | KARPAS-231 (B-cell leukaemia, suspension) | – | – | 0.276 | 34.7 | 0.398 | 9 | 0.992 | > 2000 | 0.822 | 4160 | 0.838 | 7460
20 | KG-1 (acute myeloid leukaemia, suspension) | 0.71 | 4520 | 0.593 | 218 | 0.99 | > 256 | – | – | 0.819 | 4920 | 0.971 | > 16000
21 | LB647-SCLC (small cell lung carcinoma, semi-adherent) | – | – | 0.94 | > 2000 | 0.555 | 23 | 0.883 | > 2000 | 0.82 | 6630 | 0.985 | > 16000
22 | LB996-RCC (kidney, adherent) | 0.901 | > 20000 | 0.928 | > 2000 | 0.783 | 126 | – | – | 0.908 | > 10000 | 0.913 | > 16000
23 | LC-2-ad (lung adenocarcinoma, adherent) | 0.726 | 5580 | 0.891 | > 2000 | 0.346 | 5.92 | – | – | 0.801 | 5030 | 0.926 | > 16000
24 | LNCaP-Clone-FGC (prostate, adherent) | 0.789 | 10300 | 0.978 | > 2000 | 0.984 | > 256 | – | – | 0.808 | 6090 | 0.964 | > 16000

Row | Cell Line | AUC [1] | IC50 [1] [nM] | AUC [2] | IC50 [2] [nM] | AUC [3] | IC50 [3] [nM] | AUC [4] | IC50 [4] [nM] | AUC [5] | IC50 [5] [nM] | AUC [6] | IC50 [6] [nM]
25 | LOXIMVI (melanoma, semi-adherent) | 0.879 | 16600 | 0.984 | > 2000 | 0.72 | 61.8 | – | – | 0.705 | 2190 | 0.974 | > 16000
26 | MHH-NB-11 (neuroblastoma, adherent) | 0.751 | 7160 | 0.858 | 1910 | 0.785 | 122 | 0.943 | > 2000 | – | – | 0.911 | > 16000
27 | MY-M12 (leukaemia, suspension) | 0.352 | 460 | 0.465 | 98.9 | 0.344 | 5.55 | 0.978 | > 2000 | – | – | 0.862 | > 16000
28 | MZ7-mel (melanoma, adherent) | 0.763 | 7440 | 0.987 | > 2000 | 0.737 | 78.4 | – | – | 0.757 | 3550 | 0.959 | > 16000
29 | NB7 (neuroblastoma, adherent) | 0.883 | > 20000 | 0.986 | > 2000 | 0.985 | > 256 | – | – | 0.749 | 3380 | 0.96 | > 16000
30 | NB17 (neuroblastoma, adherent) | 0.892 | > 20000 | 0.469 | 102 | 0.671 | 51.7 | 0.855 | 1990 | – | – | 0.962 | > 16000
31 | NB69 (neuroblastoma, adherent) | 0.906 | > 20000 | 0.834 | 1100 | 0.719 | 61.3 | 0.975 | > 2000 | – | – | 0.972 | > 16000
32 | NCI-H64 (small cell lung carcinoma, suspension) | 0.437 | 877 | 0.784 | 630 | 0.654 | 37.9 | 0.996 | > 2000 | – | – | 0.988 | > 16000
33 | NCI-H446 (small cell lung carcinoma, semi-adherent) | – | – | 0.57 | 197 | 0.435 | 10.5 | 0.985 | > 2000 | 0.784 | 4600 | 0.949 | > 16000
34 | NCI-H510A (small cell lung carcinoma, semi-adherent) | 0.837 | 11800 | 0.569 | 189 | 0.478 | 14 | 0.969 | > 2000 | – | – | 0.813 | 7790
35 | NCI-H1355 (lung adenocarcinoma, adherent) | 0.971 | > 20000 | 0.937 | > 2000 | 0.472 | 13 | – | – | 0.814 | 8850 | 0.875 | > 16000
36 | PL-21 (acute myeloid leukaemia, suspension) | 0.338 | 408 | – | – | 0.53 | 19.6 | 0.97 | > 2000 | 0.802 | 5900 | 0.877 | > 16000
37 | RCC10RGB (kidney, adherent) | 0.852 | > 20000 | 0.926 | > 2000 | 0.92 | > 256 | 0.968 | > 2000 | – | – | 0.827 | > 16000
38 | RL95-2 (endometrium, adherent) | 0.902 | > 20000 | – | – | 0.451 | 11.8 | 0.959 | > 2000 | 0.786 | 4270 | 0.92 | > 16000
39 | SBC-1 (small cell lung carcinoma, suspension) | 0.844 | 13600 | 0.741 | 591 | 0.865 | 212 | – | – | 0.777 | 3850 | 0.964 | > 16000
40 | SCC-15 (head and neck, adherent) | 0.866 | > 20000 | 0.879 | > 2000 | 0.904 | > 256 | – | – | 0.855 | > 10000 | 0.932 | > 16000
41 | SK-N-DZ (neuroblastoma, adherent) | 0.923 | > 20000 | – | – | 0.597 | 29.4 | 0.988 | > 2000 | 0.725 | 2690 | 0.984 | > 16000
42 | SKM-1 (haematopoietic neoplasm, suspension) | – | – | 0.383 | 57.3 | 0.984 | > 256 | – | – | 0.717 | 2760 | 0.983 | > 16000
43 | SU-DHL-8 (B-cell lymphoma, suspension) | 0.524 | 1450 | 0.691 | 411 | 0.399 | 8.64 | – | – | 0.924 | > 10000 | 0.775 | 5890
44 | SUP-B15 (lymphoblastic leukaemia, suspension) | 0.679 | 3870 | 0.131 | 9.09 | 0.64 | 38.4 | 0.982 | > 2000 | – | – | 0.772 | 5930
45 | TC-71 (Ewing sarcoma, adherent) | 0.415 | 764 | 0.991 | > 2000 | 0.788 | 92.5 | – | – | 0.656 | 1560 | 0.959 | > 16000
46 | TE-10 (oesophagus, adherent) | 0.958 | > 20000 | 0.988 | > 2000 | 0.435 | 10.7 | – | – | 0.771 | 3770 | 0.901 | > 16000
47 | THP-1 (acute myeloid leukaemia, suspension) | 0.75 | 5960 | – | – | 0.972 | > 256 | 0.991 | > 2000 | 0.825 | 5230 | 0.972 | > 16000
48 | no-10 (glioma, adherent) | 0.922 | > 20000 | – | – | 0.569 | 25.7 | 0.978 | > 2000 | 0.729 | 3290 | 0.902 | > 16000
